These results are taken from PubChem BioAssay AID488969 (Vanderbilt High Throughput Screening Facility, 2010).

Structures are written as SMILES. The full ranking holds about 110,000 compounds; the median of “z-score” is about -0.1, and the highest 2% start at about 2. The list shows a part of the results. Calls of active or inactive are those of the source.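 How the source made its calls: active means z-score in the third read window above 3 or below -3; inactive means the rest.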

The target of the experiment is Metabotropic glutamate receptor 8 (Rattus norvegicus) (UniProt P70579). Kind of experiment: mGluR8 Gi/Go-coupled signaling modulation – cell-based, rat, thallium flux, HTS, primary screen (AID 488969). As to conditions: HEK293 rat mGluR8, GIRK (G protein-gated inwardly rectifying potassium channel) thallium flux, FluoZin2; at 10 µM; stronger effect = higher value; submaximal glutamate (EC20) added with thallium.
Chain of UniProt P70579 (P70579 whole entry, looked up): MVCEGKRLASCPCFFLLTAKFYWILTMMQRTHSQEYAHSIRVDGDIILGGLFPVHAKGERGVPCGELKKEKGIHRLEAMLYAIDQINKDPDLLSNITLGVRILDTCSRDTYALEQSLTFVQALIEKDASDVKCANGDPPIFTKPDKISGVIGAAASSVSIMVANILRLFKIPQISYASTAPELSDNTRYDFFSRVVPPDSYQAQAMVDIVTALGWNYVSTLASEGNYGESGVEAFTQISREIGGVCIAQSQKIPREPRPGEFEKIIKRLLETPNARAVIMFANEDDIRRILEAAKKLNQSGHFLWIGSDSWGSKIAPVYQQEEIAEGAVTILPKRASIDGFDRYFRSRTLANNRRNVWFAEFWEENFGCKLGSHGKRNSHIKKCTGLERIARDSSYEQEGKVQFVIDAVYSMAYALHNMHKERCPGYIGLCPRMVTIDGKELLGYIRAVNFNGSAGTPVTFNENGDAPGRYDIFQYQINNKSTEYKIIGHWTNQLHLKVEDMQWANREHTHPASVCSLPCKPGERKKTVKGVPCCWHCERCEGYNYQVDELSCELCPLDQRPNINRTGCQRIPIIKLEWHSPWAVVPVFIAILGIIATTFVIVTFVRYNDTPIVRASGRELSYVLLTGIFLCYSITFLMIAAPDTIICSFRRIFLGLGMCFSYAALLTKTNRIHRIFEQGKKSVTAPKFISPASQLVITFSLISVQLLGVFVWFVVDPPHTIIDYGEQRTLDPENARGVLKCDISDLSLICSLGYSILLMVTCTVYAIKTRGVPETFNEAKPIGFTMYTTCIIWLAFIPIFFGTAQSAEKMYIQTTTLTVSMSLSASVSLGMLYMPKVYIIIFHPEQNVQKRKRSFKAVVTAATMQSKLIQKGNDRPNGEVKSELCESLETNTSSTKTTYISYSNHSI
With `COc1ccc(-c2cc(C(=O)N3CCN(c4ncccn4)CC3)c3ccccc3n2)c(OC)c1`, the z-score was -0.629.

On to `COc1ccc(/C=C2\SC(=NCc3ccccc3)N(Cc3ccccc3)C2=O)cc1OC`, for which the z-score is 0.162.

Molecule `Cc1cccc(-n2ncc3c(NCCN4CCOCC4)ncnc32)c1` showed a z-score of -0.521.

`COc1ccccc1/C=C/C(=O)N1CCOCC1` came in with a z-score of -0.054.

As for `Cc1sc(NC(=S)NC(=O)c2ccccc2)c(C#N)c1C`, the z-score was 1.42.

`O=C(Cn1c(=O)oc2ccccc21)N1CCN(c2ccc(N3CCOCC3)nn2)CC1` gave a z-score of -0.0815.

With `O=C(Nc1nnc(-c2cccs2)o1)c1cccc(Oc2ccccc2)c1`, the z-score was active: 14.

With `CC1CCCC(n2c(=S)[nH]c3ccccc3c2=O)C1C` (stereo not given), the z-score was active: 9.07.

The molecule `CCS(=O)(=O)c1ccc2c(c1)N(S(=O)(=O)c1ccc(OC)cc1)CC(C(=O)O)O2` (stereo not given) displayed a z-score of -0.678.

In the case of `O=C(NC1CCN(C(=O)N2c3ccccc3Sc3ccccc32)CC1)c1ccccc1F`, the z-score was -0.247.

`CCOc1ccccc1N1CCN(C(=O)CCCc2nc3ccccc3s2)CC1` came in with a z-score of -0.554.

Molecule `CCOc1ccc(N(CC(=O)NCc2ccco2)S(=O)(=O)c2ccc(OC)c(OC)c2)cc1` returned a z-score of -0.204.

`CCCCCCC1/C(=N/O)CCC1C(=O)OC` (stereo not given) displayed a z-score of 0.164.

The molecule `Cc1ccc(S(=O)(=O)N2CCC(C(N)=O)CC2)c(C)c1C` came in with a z-score of 0.396.

For the molecule `O=C1CC(c2ccc(S(=O)(=O)N3CCCCC3)cc2)CN1` (stereo not given), the z-score was -2.53.

`COc1cccc(C(=O)NC(=S)Nc2ccc3c4c(cccc24)CC3)c1` yielded a z-score of 2.83.

Molecule `COc1ccc2c(=O)c(-c3cnn(-c4ccccc4)c3)c(C)oc2c1` showed a z-score of 0.0559.

`COC(=O)c1ccc(-c2cc(C(=O)O)c3cc4c(cc3n2)OCCO4)cc1`: the z-score was 0.138.

Molecule `O=C(Nc1ccc(-c2nc3ccccc3c(=O)o2)cc1)c1ccco1` registered a z-score of -0.282.

`Cc1cccc(Nc2ncnc3nc[nH]c23)c1C` yielded a z-score of 0.813.

`CCN1C(=O)S/C(=C/c2ccc(Sc3nc4ccccc4[nH]3)o2)C1=O` showed a z-score of -0.108.

`O=C(c1ccccc1)c1ccc(OCC(O)CN2CCN(S(=O)(=O)N3CCCCC3)CC2)cc1` (stereo not given) registered a z-score of 0.198.

`COc1ccc(OCCn2c(C)c(/C=N/n3cnnc3)c3ccccc32)cc1` gave a z-score of 0.371.

Molecule `CCOC(=O)c1ccc(NS(=O)(=O)c2cc(C)ccc2OC)cc1` displayed a z-score of 0.456.

`COC(=O)c1ccc(N2CCN(S(=O)(=O)c3ccccc3)CC2)c([N+](=O)[O-])c1`: the z-score was -0.111.

For the molecule `c1ccc(-c2nc(NCC3CCCO3)c3ccccc3n2)nc1` (stereo not given), the z-score was -0.0294.

As to `Cc1ccc(S(=O)(=O)c2nc(-c3ccco3)oc2SCC(=O)NCC2CCCO2)cc1` (stereo not given), the z-score amounted to 0.122.

The molecule `O=C(NCc1ccc2c(c1)OCO2)c1ccc(S(=O)(=O)N2CCCCC2)cc1` had a z-score of -0.0895.

`CNC(=O)CCSc1ccc(C)cc1` gave a z-score of 1.02.

`COCCCNCC1C(Oc2ccc(Cl)cc2)C(=O)N1c1ccccc1C` (stereo not given): the z-score was determined as 0.258.

Molecule `CCOc1cc(C(=O)OCC(=O)c2c[nH]c3ccccc23)ccc1OCC(=O)N1CCOCC1` registered a z-score of -0.0857.

In turn, `Cc1ccc(S(=O)(=O)N(CC(=O)N2CCOCC2)CC(=O)N2CCOCC2)cc1` had a z-score of 0.284.

`O=C(Nc1nccs1)NC(C(F)(F)F)C(F)(F)F` gave a z-score of 0.0731.

Molecule `COC(=O)c1cc(C(=O)OC)n(Cc2ccc(Cl)cc2Cl)n1` returned a z-score of -0.126.

Turning to `N#Cc1cn(CCOc2ccccc2F)c2ccccc12`, the z-score is -0.493.

Consider `COc1ccc(CNC(=O)c2cccnc2Sc2ccc(Cl)cc2)cc1`, for which the z-score was found to be 0.577.

The molecule `Cc1ccccc1C(=O)NN(C)c1nc2ccccc2nc1C(F)(F)F` registered a z-score of -0.161.

Molecule `O=C(Cn1nc(Cc2cccnc2)c2ccccc2c1=O)NCCCN1CCCC1=O` gave a z-score of 0.264.

`CC(C)CNC(=O)c1nc(-c2ccccc2)n(-c2ccccc2)n1` came in with a z-score of -0.332.

The molecule `Cc1ccc(-c2cn(S(=O)(=O)c3cccc4nsnc34)nc2N)cc1` displayed a z-score of -1.12.

`O=C(c1ccc(F)cc1)N1CCN(C(=O)c2cccnc2)CC1` gave a z-score of -0.493.

On to `O=C(Nc1ccc2ccccc2c1)c1onc2c1CCCC2`, for which the z-score came to 0.0246.

The molecule `[2H]c1c([2H])c([2H])c(C(=O)c2sc(N3CCCCCC3)nc2-c2ccccc2)c([2H])c1[2H]` had a z-score of -0.327.

On to `CN(C)c1ccc(NC(=O)c2cccc(N3C(=O)C4C5C=CC(C5)C4C3=O)c2)cc1` (stereo not given), for which the z-score is -0.147.

Molecule `Cc1cccc(N2CCN(C(=O)C3CCCN(S(=O)(=O)c4c(C)noc4C)C3)CC2)c1C` (stereo not given) yielded a z-score of -0.465.

Consider `CN(C)c1ccc(/C=N/NC(=O)c2ccc(CN3C(=O)c4cccc5cccc3c45)cc2)cc1`, for which the z-score is -0.1.

For the molecule `Cc1ccc(S(=O)(=O)NCCCCCC(=O)Nc2ccccn2)cc1`, the z-score is -0.197.

In the case of `Cc1cc(=O)n2[nH]c(N)c(N=Nc3ccccc3)c2n1`, the z-score is -0.244.

The molecule `Cc1ccc(NC(=O)Cn2c(=O)n(CCCC(=O)NCc3ccco3)c(=O)c3ccccc32)cc1` had a z-score of 1.11.

Consider `COc1cccc(CNCCSc2nnnn2C)c1`, for which the z-score was -0.331.

For `COc1ccc(-c2nn(C)c(=O)c3ccccc23)cc1NC(=O)Cn1nc(-c2ccccc2)c2ccccc2c1=O`, the z-score was -0.728.

With `O=C(Nc1nnc(C2CC2)s1)c1ccncc1`, the z-score is 0.0327.

For the molecule `O=c1c2cnn(-c3ccccc3)c2ncn1/N=C/c1ccncc1`, the z-score is -0.283.

Regarding `O=C(CSc1nnc(Cc2cccs2)n1-c1ccc(Cl)cc1)NCc1ccc2c(c1)OCO2`, the z-score was -0.113.

Molecule `CCn1c(SCC(=O)NCc2ccco2)nnc1-c1cccs1` came in with a z-score of -0.0195.

Molecule `N#CCCCSc1nnnn1-c1cccc(Cl)c1` registered a z-score of -0.399.

`Cc1nc(-c2cccnc2)sc1C(=O)Nc1ccc(Cl)cc1`: the z-score was -0.679.

The molecule `Cc1nn(C(=O)c2cc3sccc3[nH]2)c(C)c1C` yielded a z-score of -0.18.

Regarding `CCOC(=O)c1noc(C)c1C(=O)Nc1cccc(F)c1`, the z-score is -0.0079.

`COc1ccc(C)cc1Cn1c(S(C)(=O)=O)nc2ccccc21` yielded a z-score of -2.09.

`CCOC(=O)/C(=C/c1ccccc1)NC(=O)c1ccco1` showed a z-score of -0.14.

`COc1ccccc1NC(=O)c1ccc(-n2cccn2)nc1` showed a z-score of -0.237.

Turning to `CC1=C(C#N)C(Nc2ccc(Cl)cn2)(C(F)(F)F)C(=O)N1` (stereo not given), the z-score came out at 0.0919.

The molecule `Cc1nc(NC(=O)c2ccc(Br)o2)sc1C` yielded a z-score of -0.141.

On to `Cc1nn(-c2nc3ccccc3n2Cc2ccccc2)c2c1C(=O)CC(C)(C)C2`, for which the z-score is -1.13.

In the case of `CSc1nsc(NC(=O)Cc2ccccc2)n1`, the z-score is -0.175.

As for `CCCc1nnc(N2C(=O)c3cccc4cccc(c34)C2=O)s1`, the z-score was 0.128.

As for `CC(C)N1C/C(=C/c2ccsc2)C(=O)/C(=C/c2ccsc2)C1`, the z-score is -0.21.

The molecule `CCNc1nc(SCCOc2ccccc2)nc(N(C)C)n1` yielded a z-score of 0.0574.

`Cc1cccnc1NC(=O)/C=C/c1ccc2c(c1)OCO2` showed a z-score of 0.00142.
